The chains are these.
T1: RBFOX1 RRM (Homo sapiens, UniProt Q9NWB1 109-208)
T1 sequence: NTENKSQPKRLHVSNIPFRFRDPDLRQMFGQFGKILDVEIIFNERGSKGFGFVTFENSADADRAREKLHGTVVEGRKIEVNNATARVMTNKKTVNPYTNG

B1: GAGUUCU (DNA:RNA)
RNA: GGGAGACCGGAAUUCAGAUUGUCCGAGUUCUUUAAAUCCCGUCGUAGCCACCA
DNA 1: CAATCTGAATTCCGGTCTCCC
DNA 2: TGGTGGCTACGACGGGATT
B2: UAUAGUU (DNA:RNA)
RNA: B1 RNA with G25U, G27U, U28A, U29G, C30U
DNA 1: CAATCTGAATTCCGGTCTCCC
DNA 2: TGGTGGCTACGACGGGATT
B3: AAUGAAA (DNA:RNA)
RNA: B1 RNA with G25A, G27U, U28G, U29A, C30A, U31A
DNA 1: CAATCTGAATTCCGGTCTCCC
DNA 2: TGGTGGCTACGACGGGATT
B4: GGUCGGG (DNA:RNA)
RNA: B1 RNA with A26G, G27U, U28C, U29G, C30G, U31G
DNA 1: CAATCTGAATTCCGGTCTCCC
DNA 2: TGGTGGCTACGACGGGATT
B5: CACUGUG (DNA:RNA)
RNA: B1 RNA with G25C, G27C, U29G, C30U, U31G
DNA 1: CAATCTGAATTCCGGTCTCCC
DNA 2: TGGTGGCTACGACGGGATT
B6: AUUCGAG (DNA:RNA)
RNA: GGGAGACCGGAAUUCAGAUUGUCCAUUCGAGUUAAAUCCCGUCGUAGCCACCA
DNA 1: CAATCTGAATTCCGGTCTCCC
DNA 2: TGGTGGCTACGACGGGATT
B7: CUAACGC (DNA:RNA)
RNA: B6 RNA with A25C, U27A, C28A, G29C, A30G, G31C
DNA 1: CAATCTGAATTCCGGTCTCCC
DNA 2: TGGTGGCTACGACGGGATT
B8: GGUCGUG (DNA:RNA)
RNA: B6 RNA with A25G, U26G, A30U
DNA 1: CAATCTGAATTCCGGTCTCCC
DNA 2: TGGTGGCTACGACGGGATT
B9: AGUUCCU (DNA:RNA)
RNA: B1 RNA with G25A, A26G, G27U, U29C
DNA 1: CAATCTGAATTCCGGTCTCCC
DNA 2: TGGTGGCTACGACGGGATT
B10: GCGAGAA (DNA:RNA)
RNA: B6 RNA with A25G, U26C, U27G, C28A, G31A
DNA 1: CAATCTGAATTCCGGTCTCCC
DNA 2: TGGTGGCTACGACGGGATT
B11: AGUCUCA (DNA:RNA)
RNA: B6 RNA with U26G, G29U, A30C, G31A
DNA 1: CAATCTGAATTCCGGTCTCCC
DNA 2: TGGTGGCTACGACGGGATT
B12: CGGUUCC (DNA:RNA)
RNA: B1 RNA with G25C, A26G, U31C
DNA 1: CAATCTGAATTCCGGTCTCCC
DNA 2: TGGTGGCTACGACGGGATT
B13: CACUCUA (DNA:RNA)
RNA: B1 RNA with G25C, G27C, U29C, C30U, U31A
DNA 1: CAATCTGAATTCCGGTCTCCC
DNA 2: TGGTGGCTACGACGGGATT
B14: CUCCCGC (DNA:RNA)
RNA: B6 RNA with A25C, U27C, G29C, A30G, G31C
DNA 1: CAATCTGAATTCCGGTCTCCC
DNA 2: TGGTGGCTACGACGGGATT
B15: UAGGAGA (DNA:RNA)
RNA: B1 RNA with G25U, U28G, U29A, C30G, U31A
DNA 1: CAATCTGAATTCCGGTCTCCC
DNA 2: TGGTGGCTACGACGGGATT
B16: UUCUGAG (DNA:RNA)
RNA: B6 RNA with A25U, U27C, C28U
DNA 1: CAATCTGAATTCCGGTCTCCC
DNA 2: TGGTGGCTACGACGGGATT
B17: CUCGAAU (DNA:RNA)
RNA: B6 RNA with A25C, U27C, C28G, G29A, G31U
DNA 1: CAATCTGAATTCCGGTCTCCC
DNA 2: TGGTGGCTACGACGGGATT
B18: CUAGUUA (DNA:RNA)
RNA: B6 RNA with A25C, U27A, C28G, G29U, A30U, G31A
DNA 1: CAATCTGAATTCCGGTCTCCC
DNA 2: TGGTGGCTACGACGGGATT
B19: GCAGAGA (DNA:RNA)
RNA: B1 RNA with A26C, G27A, U28G, U29A, C30G, U31A
DNA 1: CAATCTGAATTCCGGTCTCCC
DNA 2: TGGTGGCTACGACGGGATT
B20: GGCCCUA (DNA:RNA)
RNA: B6 RNA with A25G, U26G, U27C, G29C, A30U, G31A
DNA 1: CAATCTGAATTCCGGTCTCCC
DNA 2: TGGTGGCTACGACGGGATT
B21: ACCCCCG (DNA:RNA)
RNA: B6 RNA with U26C, U27C, G29C, A30C
DNA 1: CAATCTGAATTCCGGTCTCCC
DNA 2: TGGTGGCTACGACGGGATT
B22: CAGACUC (DNA:RNA)
RNA: B1 RNA with G25C, U28A, U29C, C30U, U31C
DNA 1: CAATCTGAATTCCGGTCTCCC
DNA 2: TGGTGGCTACGACGGGATT
B23: CAUGAGG (DNA:RNA)
RNA: B6 RNA with A25C, U26A, C28G, G29A, A30G
DNA 1: CAATCTGAATTCCGGTCTCCC
DNA 2: TGGTGGCTACGACGGGATT
B24: CGCCCAA (DNA:RNA)
RNA: B6 RNA with A25C, U26G, U27C, G29C, G31A
DNA 1: CAATCTGAATTCCGGTCTCCC
DNA 2: TGGTGGCTACGACGGGATT
B25: AUGAAGA (DNA:RNA)
RNA: B6 RNA with U27G, C28A, G29A, A30G, G31A
DNA 1: CAATCTGAATTCCGGTCTCCC
DNA 2: TGGTGGCTACGACGGGATT
B26: GAACCGA (DNA:RNA)
RNA: B1 RNA with G27A, U28C, U29C, C30G, U31A
DNA 1: CAATCTGAATTCCGGTCTCCC
DNA 2: TGGTGGCTACGACGGGATT
B27: CUGUUAU (DNA:RNA)
RNA: B1 RNA with G25C, A26U, C30A
DNA 1: CAATCTGAATTCCGGTCTCCC
DNA 2: TGGTGGCTACGACGGGATT
B28: GUGCAAA (DNA:RNA)
RNA: B6 RNA with A25G, U27G, G29A, G31A
DNA 1: CAATCTGAATTCCGGTCTCCC
DNA 2: TGGTGGCTACGACGGGATT
B29: GUCCUGU (DNA:RNA)
RNA: B1 RNA with A26U, G27C, U28C, C30G
DNA 1: CAATCTGAATTCCGGTCTCCC
DNA 2: TGGTGGCTACGACGGGATT
B30: CUGGACG (DNA:RNA)
RNA: B6 RNA with A25C, U27G, C28G, G29A, A30C
DNA 1: CAATCTGAATTCCGGTCTCCC
DNA 2: TGGTGGCTACGACGGGATT
B31: GGUGCUG (DNA:RNA)
RNA: B6 RNA with A25G, U26G, C28G, G29C, A30U
DNA 1: CAATCTGAATTCCGGTCTCCC
DNA 2: TGGTGGCTACGACGGGATT

Positions count from the first letter of the chain named. The list shows a part of the results.

This test deals with T1, RBFOX1 RRM. As to the kind of experiment: EMSA; HiTS-Eq, 1 nM pool, 10 min; buffer printed only for the single-RNA assays: 10 mM Tris pH 7.5, 150 mM NaCl, 3.4 mM EDTA, 0.001% NP-40, 30 C. The conditions noted are these: tags: His6 N-terminal (pET28a); label: 5' 32P. The gist of the method: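 Purified wild-type or mutant RbFox RRM at increasing concentrations was equilibrated with 1 nM of 5′-radiolabelled RNA carrying 7 randomized nucleotides for 10 min in 50 µL. Unbound RNA was separated by 8% native PAGE and sequenced. Relative association constants came from read-count changes of each RNA species compared with the control reaction, normalised to the cognate motif.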
For the molecule B1, the binding signal was 0.0146 KA relative to UGCAUGU.
For B2 the value was 0.00973 KA relative to UGCAUGU.
The result for B3 reads 0.00591 KA relative to UGCAUGU.
The result for B4 reads 0.0138 KA relative to UGCAUGU.
With B5, the binding signal is 0.0112 KA relative to UGCAUGU.
The result for B6 reads 0.0104 KA relative to UGCAUGU.
As to B7, the binding signal was 0.00556 KA relative to UGCAUGU.
The result for B8 reads 0.00709 KA relative to UGCAUGU; that for B9, 0.00839 KA relative to UGCAUGU.
For B10 the value was 0.0152 KA relative to UGCAUGU; for B11, 0.00863 KA relative to UGCAUGU.
The result for B12 reads 0.0273 KA relative to UGCAUGU; that for B13, 0.00266 KA relative to UGCAUGU; that for B14, 0.00937 KA relative to UGCAUGU.
As for B15, the binding signal is 0.00599 KA relative to UGCAUGU.
The result for B16 reads 0.0217 KA relative to UGCAUGU.
The result for B17 reads 0.0088 KA relative to UGCAUGU.
The result for B18 reads 0.00309 KA relative to UGCAUGU.
B19: the binding signal was 0.0131 KA relative to UGCAUGU.
The result for B20 reads 0.013 KA relative to UGCAUGU.
The result for B21 reads 0.00291 KA relative to UGCAUGU; that for B22, 0.00715 KA relative to UGCAUGU.
The result for B23 reads 0.00885 KA relative to UGCAUGU; that for B24, 0.00259 KA relative to UGCAUGU.
As for B25, the binding signal was 0.00985 KA relative to UGCAUGU.
The result for B26 reads 0.00508 KA relative to UGCAUGU; that for B27, 0.0116 KA relative to UGCAUGU; that for B28, 0.0108 KA relative to UGCAUGU.
The result for B29 reads 0.0155 KA relative to UGCAUGU; that for B30, 0.0124 KA relative to UGCAUGU; that for B31, 0.0153 KA relative to UGCAUGU.
